Test results from patent US20180230235A1 (Affibody, published 2018).

Columns and labels:
[1] = target: T1, CAIX on the surface of LS174T and SK-RC-52 cells (UniProt Q16790 38-459); test: immunofluorescence microscopy of LS174T cells, detection with goat anti-Z variant Ig and Alexa488-labeled anti-goat antibody [panel C]
[2] = target: Human CAIX (carbonic anhydrase IX) (human, UniProt Q16790 59-414); test: SPR (Biacore 2000), human CAIX immobilized on a CM5 chip, analyte 1 µM, blank surface subtracted
[3] = target: T1, CAIX on the surface of LS174T and …; test: immunofluorescence microscopy of LS174T cells, detection with goat anti-Z variant Ig and Alexa488-labeled anti-goat antibody [panel B]
[4] = target: T1, CAIX on the surface of LS174T and …; test: flow cytometry on LS174T cells, 10 ug/ml
[5] = target: T1, CAIX on the surface of LS174T and …; test: immunofluorescence microscopy of LS174T cells, detection with goat anti-Z variant Ig and Alexa488-labeled anti-goat antibody [panel A]

| Binder | binding result [1] | binding result [2] | binding result [3] | binding result [4] | binding result [5] |
| --- | --- | --- | --- | --- | --- |
| His6-(Z04208)2-Cys-NEM (designed binder, C-terminal Cys reacted with N-ethylmaleimide (NEM), head-to-tail dimer in one chain; also called dimeric Z04208) MGSSHHHHHHLQVDAKYAKEHEWAGVEIQSLPNLTTQQKHAFIYKLWDDPSQSSELLAEAKKLNDAQAPKVDAKYAKEHEWAGVEIQSLPNLTTQQKHAFIYKLWDDPSQSSELLAEAKKLNDAQAPKVDC | binds | binds |  |  |  |
| His6-(Z04187)2-Cys-NEM (designed binder, C-terminal Cys reacted with N-ethylmaleimide (NEM), head-to-tail dimer in one chain; also called dimeric Z04187) MGSSHHHHHHLQVDAKYAKENLWAGWEIDDLPNLTHSQRNAFIYKLWDDPSQSSELLAEAKKLNDAQAPKVDAKYAKENLWAGWEIDDLPNLTHSQRNAFIYKLWDDPSQSSELLAEAKKLNDAQAPKVDC |  | binds | binds |  |  |
| His6-(Z04196)2-Cys-NEM (designed binder, C-terminal Cys reacted with N-ethylmaleimide (NEM), head-to-tail dimer in one chain; also called dimeric Z04196) MGSSHHHHHHLQVDAKYAKEWKFASIEIADLPNLTQHQKDAFIFKLWDDPSQSSELLAEAKKLNDAQAPKVDAKYAKEWKFASIEIADLPNLTQHQKDAFIFKLWDDPSQSSELLAEAKKLNDAQAPKVDC |  | binds |  | binds |  |
| His6-(Z04191)2-Cys-NEM (designed binder, C-terminal Cys reacted with N-ethylmaleimide (NEM), head-to-tail dimer in one chain; also called dimeric Z04191) MGSSHHHHHHLQVDAKYAKEDVNAWQEIIKLPNLTIFQRDAFIYKLWDDPSQSSELLAEAKKLNDAQAPKVDAKYAKEDVNAWQEIIKLPNLTIFQRDAFIYKLWDDPSQSSELLAEAKKLNDAQAPKVDC |  | binds |  | binds |  |
| His6-(Z04421)2-Cys-NEM (designed binder, C-terminal Cys reacted with N-ethylmaleimide (NEM), head-to-tail dimer in one chain; also called dimeric Z04421) MGSSHHHHHHLQVDAKYAKEDRYAWTEIHKLPNLTVRQQNAFIYKLWDDPSQSSELLAEAKKLNDAQAPKVDAKYAKEDRYAWTEIHKLPNLTVRQQNAFIYKLWDDPSQSSELLAEAKKLNDAQAPKVDC |  | binds |  |  | binds |
